Laboratory results reported in the supplement of paper PMC3334620.
The full ranking holds about 33,000 sequences; the median of “E-score (-0.5 to 0.5)” is about -0.01, and the highest 2% start at about 0.26. This is one part of the list.

Target: Ste12 (UniProt P13574)
Assay: PBM E-score (8-mer binding enrichment) (E-score (-0.5 to 0.5)); higher = stronger / more preferred TF binding; most listed sequences are background and not binding sites
Conditions: protein concentration: 200 nM; construct: GST-DNA-binding domain
Experimental: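 Universal 'all 10-mer' protein binding microarrays (Agilent AMADID 015681) probed with GST-tagged S. cerevisiae TFs (full-length or DBD) made by in vitro transcription/translation (PURExpress), about 100-200 nM. Bound TF was detected with fluorescent anti-GST. Each ungapped 8-mer (which stands for itself and its reverse complement) is scored by the PBM enrichment score (E-score), a modified Wilcoxon-Mann-Whitney statistic from -0.5 to +0.5, computed with the Universal PBM Analysis Suite. Scale: above 0.35 generally sequence-specific binding.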

Row | Sequence | PBM E-score
1 | GCCGCGCC | -0.0977
2 | AGATAGTG | 0.0758
3 | ACTGGAGG | 0.0707
4 | AGGCTTCA | -0.183
5 | ATGTTCCA | 0.18
6 | CCTAGAAG | -0.0953
7 | CTGAATTC | 0.0563
8 | ACTCTGGA | 0.0587
9 | AATTCTGT | 0.113
10 | GCCGAACC | 0.0313
11 | AACAATTA | 0.297
12 | GGTGGGAC | -0.0137
13 | AACTATCC | -0.156
14 | CATCTGAC | -0.222
15 | CTACTTAC | 0.099
16 | CAATGGCA | 0.115
17 | AGCTATGC | -0.334
18 | GAGTAGTA | 0.0379
19 | CCAGTACC | 0.0222
20 | CCTACCCG | -0.192
21 | CACATAGC | -0.0351
22 | AGCCGGGG | -0.15
23 | ACTATTTA | 0.18
24 | CGATCGAA | -0.121
25 | ATGGCGCA | -0.118

Row | Sequence | PBM E-score
26 | AATCCGCG | -0.175
27 | CCCTTGGA | 0.0266
28 | CCAGCGTA | -0.11
29 | GGTGTCCA | -0.24
30 | ACTGAAAG | 0.175
31 | GCGTTTCA | 0.476
32 | CGTTACAC | 0.122
33 | CTACGCAC | -0.148
34 | ATTACACC | 0.0634
35 | AAAAATGC | 0.158
36 | GAATTCAA | 0.133
37 | CCGAGGTA | 0.00985
38 | GGCATCCA | -0.277
39 | GGTTAGCA | -0.0625
40 | GAAGCTTC | 0.0643
41 | CTATTCGA | -0.106
42 | CTTGCCGC | 0.0209
43 | CAAAGTCA | -0.0468
44 | AGATGCAC | -0.175
45 | AAGTATTG | 0.159
46 | GGAGCCGA | -0.0732
47 | CCCAGTTC | -0.0378
48 | TGTCCACA | 0.082
49 | TATTTGCA | 0.0371
50 | ACACTGAT | -0.0793

Row | Sequence | PBM E-score
51 | GTGTTTGA | 0.301
52 | GCTCCGAA | 0.0542
53 | AGTATTCC | 0.0656
54 | CAGCACTA | -0.19
55 | CGACCCAC | -0.0211
56 | AGGAAGCC | -0.041
57 | AATCTTCA | 0.179
58 | AGGAGATC | 0.124
59 | AGCCTTAA | -0.074
60 | AAGGGTAC | -0.0596
61 | AACAAGTG | -0.0717
62 | GTGGAGCA | -0.142
63 | AAGCATTG | -0.176
64 | GAACGGAC | -0.321
65 | CGGGGAAG | -0.011
66 | AGCTATAA | 0.076
67 | CCACGTAC | -0.176
68 | CAGCGAGA | -0.0417
69 | ATGAGCAC | -0.266
70 | ACGTGAAG | -0.0672
71 | AAAAATCC | 0.178
72 | ATTCTGGC | 0.105
73 | AAAGAAAC | 0.212
74 | GATCCAGC | -0.0767
75 | GCTAGGGA | -0.104

Row | Sequence | PBM E-score
76 | GGCCTAAC | -0.0886
77 | CAACTGCC | -0.127
78 | CCATGATC | -0.156
79 | ATCCACCC | 0.00246
80 | TCAGTGAA | 0.0723
81 | ACCTGGCG | -0.0246
82 | ACTGATTG | -0.185
83 | AACCTATT | 0.00865
84 | AGGGAACG | -0.186
85 | CCCTAAGA | -0.18
86 | CTAAAGAC | -0.0162
87 | CCAAGACC | -0.0542
88 | ATCGTTCA | 0.0393
89 | AGATATAA | 0.201
90 | CTTTTTCA | 0.208
91 | AGTACCAG | -0.134
92 | AGTCTGTG | -0.0796
93 | ACCTCTGC | 0.0141
94 | GGACGTGA | -0.248
95 | AATGCTTC | -0.0314
96 | AATCAGTA | 0.117
97 | GCGATGTA | 0.0264
98 | ATTACGTA | 0.135
99 | GTTAGAAC | 0.0739
100 | AGCTCGGG | 0.0188

Row | Sequence | PBM E-score
101 | GAGTAAAC | -0.0105
102 | ACCTTGAT | 0.113
103 | TGATGTAA | 0.105
104 | GTGGTTCA | 0.124
105 | AATGAGAC | 0.0753
106 | TCAACCAA | 0.0262
107 | CGGGCATA | 0.112
108 | AAGCTGCG | -0.177
109 | TAACCGGA | 0.0556
110 | CACTACAC | -0.126
111 | CGTTTGGA | 0.0405
112 | CTTTGGCC | -0.0517
113 | CTCAAATC | 0.135
114 | AACCAAAG | 0.145
115 | CCACGGCC | -0.183
116 | GCGTCTCA | 0.166
117 | ACCGCCCA | -0.118
118 | AAGAGACA | 0.105
119 | AACAGGGC | 0.0987
120 | CCGGGGTA | -0.0884
121 | CCAGGGGG | -0.356
122 | AATGTGGG | -0.0362
123 | ACTGGCCC | -0.0314
124 | GCGAACAA | 0.0768
125 | TGATATCA | 0.0573

Row | Sequence | PBM E-score
126 | ATTATGCG | 0.23
127 | ATAGGATC | -0.0639
128 | ACTGTGAG | 0.0709
129 | CTATCACA | 0.0742
130 | GCTTACCA | -0.0225
131 | ACCTACTA | 0.0356
132 | TTACCGAA | 0.276
133 | CTTTTTTA | 0.181
134 | CAACATAG | -0.0742
135 | CAAACCTA | 0.0393
136 | AGCATTCC | -0.158
137 | ACTCTTGA | -0.146
138 | GGGCATAA | 0.218
139 | TCAATTAA | 0.153
140 | GAACGTAC | -0.0959
141 | ATAACTCA | 0.044
142 | CTCTTTAA | -0.122
143 | ACGCATCG | -0.0965
144 | CATACGTA | 0.0491
145 | GTGATCTA | -0.0995
146 | ACCACATA | 0.0451
147 | CCAAAAAA | 0.251
148 | GCTCCCCC | -0.206
149 | AGGCTGAT | -0.0857
150 | GGAGCGAC | -0.0327

Row | Sequence | PBM E-score
151 | CGTTGGGC | -0.183
152 | GAACTCTA | -0.0541
153 | AACAAATA | 0.341
154 | ATTACACG | -0.0414
155 | CACACGAC | -0.0543
156 | AAGTTGTG | 0.0449
157 | CGGCATAC | -0.0825
158 | AAAAACGT | 0.154
159 | AGGCTTAC | -0.193
160 | GCTAGGTA | -0.131
161 | TCCCACGA | -0.0541
162 | CCGGACTA | -0.00942
163 | TAAACGCA | -0.0738
164 | AGATGAAT | 0.0609
165 | AGGGTAAG | 0.15
166 | CAACCAAC | -0.2
167 | TTCGGAAA | 0.209
168 | ATTAGATA | -0.0411
169 | AGCCTCCA | -0.0421
170 | GAATTTCA | -0.0538
171 | CTCATTGC | -0.117
172 | CCAGGCAC | -0.124
